PubChem BioAssay AID1645882 (National Center for Advancing Translational Sciences (NCATS), 2021)
Out of some 16,000 compounds screened, about 120 (0.75%) were called active. Inconclusive results (about 4%) are left out. Calls follow the shape of the dose curve; as a rule, active = well fitted inhibition curve with a large enough effect; inconclusive = small, poorly fitted or top-dose-only effect; inactive = no such curve, though single readings can be large or run the other way. The list shows a part of the results. Where a SMILES comes first, the peptide text is derived from it. [ ]: non-standard residue; d: D form. Orn = NCCC[C@H](N)C(=O)O

biological target: Rap guanine nucleotide exchange factor 3 (Homo sapiens) (UniProt O95398); assay: Validation qHTS for antagonist of cAMP-regulated guanine nucleotide exchange factor 3 (EPAC1); conditions: EPAC1 Rap1B-BODIPY-GDP exchange, fluorescence; series mostly up to 150 µM; activity change, negative = inhibition: at the top concentration; also: nearly all actives have a fitted effect of over 75% in size
Chain of UniProt O95398 (O95398 whole entry, looked up): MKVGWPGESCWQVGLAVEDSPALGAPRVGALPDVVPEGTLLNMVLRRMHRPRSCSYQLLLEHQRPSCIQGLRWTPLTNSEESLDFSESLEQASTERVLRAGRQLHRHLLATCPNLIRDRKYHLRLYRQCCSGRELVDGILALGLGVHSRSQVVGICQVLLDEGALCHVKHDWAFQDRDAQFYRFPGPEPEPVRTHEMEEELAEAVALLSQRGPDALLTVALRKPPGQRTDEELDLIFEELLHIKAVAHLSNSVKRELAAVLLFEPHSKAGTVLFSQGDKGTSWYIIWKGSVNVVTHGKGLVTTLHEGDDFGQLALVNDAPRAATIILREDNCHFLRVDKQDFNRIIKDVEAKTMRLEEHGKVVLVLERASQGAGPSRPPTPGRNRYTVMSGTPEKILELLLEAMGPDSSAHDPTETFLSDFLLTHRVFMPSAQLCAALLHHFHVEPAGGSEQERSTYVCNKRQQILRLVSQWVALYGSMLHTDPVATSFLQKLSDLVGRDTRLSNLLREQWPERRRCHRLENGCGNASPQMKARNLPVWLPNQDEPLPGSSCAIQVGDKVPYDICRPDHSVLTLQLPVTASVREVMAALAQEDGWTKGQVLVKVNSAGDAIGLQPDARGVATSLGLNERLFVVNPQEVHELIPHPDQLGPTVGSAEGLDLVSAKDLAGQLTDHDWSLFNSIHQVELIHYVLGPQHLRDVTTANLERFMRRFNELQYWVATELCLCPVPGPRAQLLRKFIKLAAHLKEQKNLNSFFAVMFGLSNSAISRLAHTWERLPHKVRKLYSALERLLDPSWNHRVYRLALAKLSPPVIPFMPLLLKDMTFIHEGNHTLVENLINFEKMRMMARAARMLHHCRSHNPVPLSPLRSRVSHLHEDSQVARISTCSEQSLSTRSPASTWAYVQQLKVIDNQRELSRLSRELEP
From the text: Assay Provider (PI): Xiaodong Cheng Ph.D.
The University of Texas Medical Branch, […], TX
In multi-cellular eukaryotic organisms, the effects of cAMP are transduced by two ubiquitously-expressed intracellular cAMP receptors, the classic protein kinase A/cAMP-dependent protein kinase (PKA/cAPK) and the more recently discovered exchange protein directly activated by cAMP/cAMP-regulated guanine nucleotide exchange factor (EPAC/cAMP-GEF). Both PKA and EPAC are ubiquitously expressed in all tissues, and an increase in intracellular cAMP levels will lead to the activation of both PKA and EPAC. Therefore, careful dissections of the individual role and relative contribution of EPAC and PKA within the overall cAMP signaling in various model systems are critical for further elucidating the mechanism of cAMP signaling. To date no EPAC-specific antagonists and agonist, as well as isoform-specific agonists have been reported, and developing EPAC-specific pharmacological probes to determine the physiological functions that EPAC play in the overall cAMP-mediated signaling remains a major challenge within the research field. Furthermore, identified regulators of EPAC may lead to new mechanism-based therapeutic strategies specifically targeting the EPAC / cAMP-signaling components as EPAC has been implicated to play important roles in major human pathological conditions such as diabetes, heart disease, and cancer.
This qHTS will be used to screen the Molecular Libraries Small Molecule Repository (MLSMR) as a concentration-titration series using the NCGC unique quantitative screening (qHTS) platform to find activators for EPAC1. In addition, this assay will also be used as a counterscreen for the EPAC2 qHTS. This fluorescent based assay is developed and validated for EPAC1 that measures exchange using EPAC effector Rap1 complex with BODIPY-GDP, a GDP analog with a tethered fluorophores. Activators are identified by monitoring the change in fluorescence signal as the exchanged free BODIPY-GDP has a reduced fluorescence compared to Rap1-bound BODIPY-GDP. Increase in signal (activation) is the desired outcome for the EPAC1 agonist while no activity in this assay is desired for the EPAC2 agonist counterscreen.
[1] de Rooij, J., Zwartkruis, F. J., Verheijen, M. H., Cool, R. H., Nijman, S. M., Wittinghofer, A., and Bos, J.L. (1998) Nature 396, 474-477.
Briefly, three uL of reagents (100 nM EPAC1, 250 nM RAP1B-BODIPY-GDP, 50 uM GDP) were dispensed into a 1536-well Greiner black solid-bottom medium binding assay plate. Controls and test compounds (23 nL) were transferred to the plate via a Kalypsys pin tool equipped with a 1536-pin array. The plates were centrifuged at 1,000 rpm for 15 seconds followed by 5 minute incubation at room temperature. The assay plates were read at 5 minute intervals for 30 minutes in the ViewLux plate reader using 480nm excitation and 540nm emission filters. The results were normalized to the […] positive control ATA and DMSO.

Activity change, negative = inhibition, inactive:
COc1ccccc1C(=O)O[C@H]1[C@H](Cc2ccccc2)NS(=O)(=O)[C@H]2C[C@@H]3C=C[C@]12O3 -2.46%
C=C1Cc2c(Cl)cc3[nH]c4c5c3c2[C@@]2(O)[C@@H]1C[C@@H]2C(C)(C)O[C@H]5[C@@H]1CC[C@@]2(O)[C@@]35O[C@@H]3[C@@H](O)[C@@H](C(=O)O)O[C@H]5CC[C@]2(C)[C@@]41C -6.41%
Cc1c(Cl)cccc1Nc1ncccc1C(=O)O 11.9%
CN(C)c1ccc(/C=C/c2ccc3cc(N(C)C)ccc3n2)cc1 11.2%
Cc1ncc2c(c1CNC(=O)c1ccc3c(c1)OCO3)CCN(C(=O)c1cn3ccccc3n1)C2 20.9%
O=c1onc2n1-c1cc(Br)ccc1OC2 9.42% [at 75.8 µM]
O=c1cnc2cnc(Nc3ccccc3)nc2n1CCc1ccccc1 20.5%
Cc1c(C(=O)N(C)C(C)C)sc2ncnc(NCCCN3CCOCC3)c12 14.4%
COC(=O)c1cc(Br)ccc1N(Cc1cc(OC)cc(OC)c1)S(C)(=O)=O 8.41%
Cc1ccc(/C(=C\CN2CCCC2)c2ccccn2)cc1
CN1CCCC2(CCN(C(=O)c3cnccn3)CC2)C1 21.9%
COc1ccc(-n2c(=O)c(-c3cccc(Cl)c3)nc3cncnc32)cc1 3.97%
CN(Cc1cccc2ncccc12)C(=O)c1cnn(-c2ncc3c(n2)-c2ccccc2CC3)c1C1CC1 -12.6%
CN(C)c1ncc2nc(-c3ccccc3)c(=O)n(-c3ccccc3)c2n1 40.8%
COc1ncc2nc(-c3ccc(F)cc3)c(=O)n(CCC#N)c2n1 3.93%
C[C@H]1[C@@H](OC(=O)CCC(=O)O)O[C@@H]2OC3(C)CC[C@H]4[C@H](C)CC[C@@H]1[C@@]24OO3 9.81%
CCCCCc1ccc(-c2cn(CCCOCc3ccccc3)nn2)cc1 -11.4%
CC(C)(O/N=C(\C(=O)N[C@@H]1C(=O)N2C(C(=O)[O-])=C(C[n+]3ccccc3)CS[C@H]12)c1csc(N)n1)C(=O)O 3.4% [at 75.8 µM]
C[C@@H](O)[C@H](N)C(=O)O 11.4%
O=C1[O][Bi][O]c2ccccc21 9.82%
COc1ccc(OC)c(-c2ccnc(-n3ncc(C(=O)N4CCN(CCO)CC4)c3C3CC3)n2)c1 2.87%
COc1ccccc1CCn1c(=O)c(-c2ccccc2)nc2cncnc21 -0.0863%
COC(=O)CNC(=O)c1cnn(-c2ncc3c(n2)-c2ccccc2CCC3)c1C1CC1 10.7%
CCOC(=O)C(CCc1ccccc1)NC(C)C(=O)N1CCCC1C(=O)O (centres undefined) 3.16%
CC(C)C[C@@H]1NC(=O)[C@H](CCCN)NC(=O)[C@H](C(C)C)NC(=O)[C@@H]2CCCN2C(=O)[C@@H](Cc2ccccc2)NC(=O)[C@H](CC(C)C)NC(=O)[C@H](CCCN)NC(=O)[C@H](C(C)C)NC(=O)[C@@H]2CCCN2C(=O)[C@@H](Cc2ccccc2)NC1=O (cyclo(V[Orn]L[dF]PV[Orn]L[dF]P)) 7.51%
COc1ccc(C2CC(=O)c3ccc(OC)cc3O2)cc1 (centres undefined) 18.9%
OC[C@H]1O[C@@H](OCCc2ccc(O)cc2)[C@H](O)[C@@H](O)[C@@H]1O 31.9%
Cc1c(O)cc(O)c2c(=O)c(-c3ccc(O)cc3)coc12 17.5%
CNCCC=C1c2ccccc2CCc2ccccc21
COc1cc(CNC(=O)CCCC/C=C\C(C)C)ccc1O
CCN1CCCC1CNC(=O)c1cnn(-c2nccc(-c3ccco3)n2)c1C1CC1 (centres undefined) 14.2%
CN(Cc1ccco1)c1ncncc1-c1cccnc1 9.32%
CCOC(=O)COc1ccc2c(C)c(CCN(CC)CC)c(=O)oc2c1Cl -11.6%
CC1=C(/C=C/C(C)=C/C=C/C(C)=C/C(=O)O)C(C)(C)CCC1O (centres undefined) 20.5%
O=S(=O)(c1ccccc1)N1CCC2(CCN(Cc3ccncc3)CC2)CC1 12.8%
Cc1ncc(-c2ccc(F)cc2)c(C2CCCN(Cc3cccc(O)c3)C2)n1 (centres undefined) 12.3%
CC1CCC(NC(=O)N(CCCl)N=O)CC1 (centres undefined) 12.6%
CCNC(=O)c1cc(NC(=O)COC)cc2nc(-c3ccncc3)n(C)c12 -2.75%
Cn1cc(-c2nc3cnc(Oc4cccc(Cl)c4)nc3n(CCC#N)c2=O)c2ccccc21 23.9%
COc1ccc2c(c1)OC[C@H]1c3cc4c(cc3O[C@@H]21)OCO4 -16.6%
Nc1cccc(/C=C/c2ccnc3ccccc23)c1 -28.7%
Oc1ccccc1C=NCc1ccccc1 -9.28%
CC(C)CN1CC2(CCN(C(=O)c3cccc(F)c3)CC2)C1 12%
c1nc(NC2CCNCC2)c2cc(-c3ccoc3)ccc2n1 -0.125%
Cc1cc(Cl)ccc1OCC(=O)N1CCOc2ccc(CN3C[C@@H](C)O[C@@H](C)C3)cc2C1 -4.59%
COc1cc(=O)n2c(c1C(=O)N1CCc3ccccc3C1)CCN(Cc1ccc(CO)o1)CC2 2.5%
COCC(=O)N1CCC[C@@]2(CCN(C(=O)Nc3ccc(OC)cc3)C2)C1 19%
COc1cccc(-c2ccc3ncnc(Nc4ccccc4)c3c2)c1 -17.3%
OC[C@@H]1O[C@@H](n2cnc3c(NC4CCCC4)ncnc32)[C@H](O)[C@H]1O 3.19%
